# Laboratory results as given in the supplement of paper PMC8948288.
# The sequences are guide strands of siRNAs; only the seed at positions 2 to 7 varies.
# What was measured:
# [1] = tested on: H4; test: cell viability relative to siNT1 (ATP content); H4 human neuroglioma and GL261 mouse glioma; higher = less toxic; conditions: siRNA concentration 10 nM; 96 h; human
# [2] = tested on: GL261; test: as above; conditions: siRNA concentration 25 nM; 96 h; mouse
# 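Note: cells reverse transfected with siRNA duplexes via lipid reagent, ATP read by luminescence, triplicate wells, values scaled to mean viability with non-targeting control siNT1.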
sequence,measurement,setting,value
UGCUCUGACAUGUAAACCA,cell viability,[1],44.6%
same,cell viability,[2],27.7%
UGCUCUUACAUGUAAACCA,cell viability,[1],82.1%
same,cell viability,[2],49.1%
UGCUGAAACAUGUAAACCA,cell viability,[1],77.3%
same,cell viability,[2],33.8%
UGCUGACACAUGUAAACCA,cell viability,[1],27.7%
same,cell viability,[2],25.5%
UGCUGAGACAUGUAAACCA,cell viability,[1],66.3%
same,cell viability,[2],36.7%
UGCUGAUACAUGUAAACCA,cell viability,[1],48.4%
same,cell viability,[2],14%
UGCUGCAACAUGUAAACCA,cell viability,[1],62.8%
same,cell viability,[2],13.2%
UGCUGCCACAUGUAAACCA,cell viability,[1],15.4%
same,cell viability,[2],17.4%
UGCUGCGACAUGUAAACCA,cell viability,[1],60.6%
same,cell viability,[2],21.4%
UGCUGCUACAUGUAAACCA,cell viability,[1],47.1%
same,cell viability,[2],16.1%
UGCUGGAACAUGUAAACCA,cell viability,[1],71.7%
same,cell viability,[2],27.3%
UGCUGGCACAUGUAAACCA,cell viability,[1],7.94%
same,cell viability,[2],17.4%
UGCUGGGACAUGUAAACCA,cell viability,[1],4.8%
same,cell viability,[2],14.7%
UGCUGGUACAUGUAAACCA,cell viability,[1],59.4%
same,cell viability,[2],15%
UGCUGUAACAUGUAAACCA,cell viability,[1],111%
same,cell viability,[2],32.1%
UGCUGUCACAUGUAAACCA,cell viability,[1],47.3%
same,cell viability,[2],22.5%
UGCUGUGACAUGUAAACCA,cell viability,[1],81.1%
same,cell viability,[2],15.2%
UGCUGUUACAUGUAAACCA,cell viability,[1],56.8%
same,cell viability,[2],17.4%
UGCUUAAACAUGUAAACCA,cell viability,[1],98%
same,cell viability,[2],60.3%
UGCUUACACAUGUAAACCA,cell viability,[1],70.8%
same,cell viability,[2],51.3%
UGCUUAGACAUGUAAACCA,cell viability,[1],61.7%
same,cell viability,[2],56.1%
UGCUUAUACAUGUAAACCA,cell viability,[1],88.2%
same,cell viability,[2],68.1%
UGCUUCAACAUGUAAACCA,cell viability,[1],75.4%
same,cell viability,[2],26.8%
UGCUUCCACAUGUAAACCA,cell viability,[1],32.5%
same,cell viability,[2],8.93%
UGCUUCGACAUGUAAACCA,cell viability,[1],77.6%
same,cell viability,[2],23.2%
UGCUUCUACAUGUAAACCA,cell viability,[1],64.2%
same,cell viability,[2],10.5%
UGCUUGAACAUGUAAACCA,cell viability,[1],76%
same,cell viability,[2],32%
UGCUUGCACAUGUAAACCA,cell viability,[1],22.6%
same,cell viability,[2],25.6%
UGCUUGGACAUGUAAACCA,cell viability,[1],35.6%
same,cell viability,[2],25.8%
UGCUUGUACAUGUAAACCA,cell viability,[1],57%
same,cell viability,[2],21.3%
UGCUUUAACAUGUAAACCA,cell viability,[1],113%
same,cell viability,[2],31.9%
UGCUUUCACAUGUAAACCA,cell viability,[1],24.6%
same,cell viability,[2],18.4%
UGCUUUGACAUGUAAACCA,cell viability,[1],57.8%
same,cell viability,[2],24.6%
UGCUUUUACAUGUAAACCA,cell viability,[1],35%
same,cell viability,[2],18.9%
UGGAAAAACAUGUAAACCA,cell viability,[1],117%
same,cell viability,[2],82.5%
UGGAAACACAUGUAAACCA,cell viability,[1],60.4%
same,cell viability,[2],39.7%
UGGAAAGACAUGUAAACCA,cell viability,[1],64.4%
same,cell viability,[2],65.1%
UGGAAAUACAUGUAAACCA,cell viability,[1],76.2%
same,cell viability,[2],34.9%
UGGAACAACAUGUAAACCA,cell viability,[1],78.2%
same,cell viability,[2],38.4%
UGGAACCACAUGUAAACCA,cell viability,[1],33%
same,cell viability,[2],22.1%
UGGAACGACAUGUAAACCA,cell viability,[1],101%
same,cell viability,[2],47.1%
UGGAACUACAUGUAAACCA,cell viability,[1],70.9%
same,cell viability,[2],30.8%
UGGAAGAACAUGUAAACCA,cell viability,[1],72.6%
same,cell viability,[2],43.3%
UGGAAGCACAUGUAAACCA,cell viability,[1],43%
same,cell viability,[2],9.98%
UGGAAGGACAUGUAAACCA,cell viability,[1],13.2%
same,cell viability,[2],14.4%
UGGAAGUACAUGUAAACCA,cell viability,[1],39.4%
same,cell viability,[2],16.5%
UGGAAUAACAUGUAAACCA,cell viability,[1],97.2%
same,cell viability,[2],69.1%
UGGAAUCACAUGUAAACCA,cell viability,[1],43.5%
same,cell viability,[2],22.4%
UGGAAUGACAUGUAAACCA,cell viability,[1],70.8%
same,cell viability,[2],42.9%
UGGAAUUACAUGUAAACCA,cell viability,[1],75.7%
same,cell viability,[2],57.8%
UGGACAAACAUGUAAACCA,cell viability,[1],69.3%
same,cell viability,[2],17.7%
UGGACACACAUGUAAACCA,cell viability,[1],43.7%
same,cell viability,[2],29.1%
UGGACAGACAUGUAAACCA,cell viability,[1],58.4%
same,cell viability,[2],11%
UGGACAUACAUGUAAACCA,cell viability,[1],52.5%
same,cell viability,[2],23.3%
UGGACCAACAUGUAAACCA,cell viability,[1],79.5%
same,cell viability,[2],30.6%
UGGACCCACAUGUAAACCA,cell viability,[1],42.8%
same,cell viability,[2],26.1%
UGGACCGACAUGUAAACCA,cell viability,[1],68%
same,cell viability,[2],22.6%
UGGACCUACAUGUAAACCA,cell viability,[1],69.7%
same,cell viability,[2],27.5%
UGGACGAACAUGUAAACCA,cell viability,[1],57.3%
same,cell viability,[2],34.7%
UGGACGCACAUGUAAACCA,cell viability,[1],43.8%
same,cell viability,[2],38.9%
UGGACGGACAUGUAAACCA,cell viability,[1],44.1%
same,cell viability,[2],18.3%
UGGACGUACAUGUAAACCA,cell viability,[1],47.3%
same,cell viability,[2],25.1%
UGGACUAACAUGUAAACCA,cell viability,[1],77.7%
same,cell viability,[2],53.2%
UGGACUCACAUGUAAACCA,cell viability,[1],65.6%
same,cell viability,[2],14.5%
UGGACUGACAUGUAAACCA,cell viability,[1],61.9%
same,cell viability,[2],25%
UGGACUUACAUGUAAACCA,cell viability,[1],67.4%
same,cell viability,[2],26%
UGGAGAAACAUGUAAACCA,cell viability,[1],84.2%
same,cell viability,[2],57.9%
UGGAGACACAUGUAAACCA,cell viability,[1],29.5%
same,cell viability,[2],29.4%
UGGAGAGACAUGUAAACCA,cell viability,[1],41.7%
same,cell viability,[2],37.4%
UGGAGAUACAUGUAAACCA,cell viability,[1],27.5%
same,cell viability,[2],26.6%
UGGAGCAACAUGUAAACCA,cell viability,[1],14%
same,cell viability,[2],26.3%
UGGAGCCACAUGUAAACCA,cell viability,[1],17.7%
same,cell viability,[2],8.37%
UGGAGCGACAUGUAAACCA,cell viability,[1],16.7%
same,cell viability,[2],25.5%
UGGAGCUACAUGUAAACCA,cell viability,[1],16.8%
same,cell viability,[2],14.4%
UGGAGGAACAUGUAAACCA,cell viability,[1],29.1%
same,cell viability,[2],22.6%
UGGAGGCACAUGUAAACCA,cell viability,[1],20.6%
same,cell viability,[2],8.55%
UGGAGGGACAUGUAAACCA,cell viability,[1],6.12%
same,cell viability,[2],11.3%
UGGAGGUACAUGUAAACCA,cell viability,[1],16.1%
same,cell viability,[2],10.9%
UGGAGUAACAUGUAAACCA,cell viability,[1],93%
same,cell viability,[2],52.7%
UGGAGUCACAUGUAAACCA,cell viability,[1],52.5%
same,cell viability,[2],13.9%
UGGAGUGACAUGUAAACCA,cell viability,[1],57.6%
same,cell viability,[2],25%
UGGAGUUACAUGUAAACCA,cell viability,[1],60.4%
same,cell viability,[2],18.8%
UGGAUAAACAUGUAAACCA,cell viability,[1],101%
same,cell viability,[2],77.7%
UGGAUACACAUGUAAACCA,cell viability,[1],117%
same,cell viability,[2],39.8%
UGGAUAGACAUGUAAACCA,cell viability,[1],77.4%
same,cell viability,[2],28.6%
UGGAUAUACAUGUAAACCA,cell viability,[1],105%
same,cell viability,[2],33.9%
UGGAUCAACAUGUAAACCA,cell viability,[1],55%
same,cell viability,[2],30.7%
UGGAUCCACAUGUAAACCA,cell viability,[1],37.7%
same,cell viability,[2],17.3%
UGGAUCGACAUGUAAACCA,cell viability,[1],80.7%
same,cell viability,[2],41.3%
UGGAUCUACAUGUAAACCA,cell viability,[1],30.8%
same,cell viability,[2],26.2%
